Laboratory results from PubChem BioAssay AID1346428 (National Center for Advancing Translational Sciences (NCATS), 2018).
Where “and” joins values, the source holds several entries; their conditions need not be identical. Equal values may be shown once. Out of some 48,000 compounds screened, about 1,200 (2.5%) were called active. Not shown: some 2% with an inconclusive outcome.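 The calls were made as follows: active = activation of at least 60% and not above a set upper limit (about 1 call in 100 departs from these limits); inconclusive = activation of 40% to 60%, or above that upper limit; inactive = activation under 40%.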 The list shows a part of the results.

molecular target: Probable G-protein coupled receptor 32 (Homo sapiens) (UniProt O75388); experiment: qHTS for Agonists of Human Resolvin D1 Receptor DRV1; conditions: CHO-K1 GPR32 beta-arrestin PathHunter luminescence, 90 min; at 76.9 µM; stronger effect = higher value; zero percent set by DMSO-only wells; also: 0% is about no effect
Procedure, shortened: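 Step 1: seed CHO-K1 GPR32 beta-arrestin cells, 2,500/well, overnight at 37 °C. Step 2: add compounds, 90 min at 37 °C. Step 3: detection reagent, 1 h ambient, then luminescence.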

Chain of UniProt O75388 (O75388 whole entry, looked up): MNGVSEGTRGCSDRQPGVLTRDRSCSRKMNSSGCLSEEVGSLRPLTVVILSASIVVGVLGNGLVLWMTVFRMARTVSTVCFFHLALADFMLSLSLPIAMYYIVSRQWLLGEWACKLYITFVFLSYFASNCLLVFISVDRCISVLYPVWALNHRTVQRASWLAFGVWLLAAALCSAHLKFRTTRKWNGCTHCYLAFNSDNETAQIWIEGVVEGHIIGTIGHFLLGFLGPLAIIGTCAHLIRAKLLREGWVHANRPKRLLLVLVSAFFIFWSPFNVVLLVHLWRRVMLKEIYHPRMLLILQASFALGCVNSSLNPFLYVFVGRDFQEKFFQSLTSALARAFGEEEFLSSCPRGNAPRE

| SMILES | activation |
| --- | --- |
| COc1ccc2oc(=O)cc(CN3CCN(Cc4ccccc4)CC3)c2c1 | inactive: -10.6% |
| COc1ccc(OC)c(CCNC(=O)CCCn2c(=O)c3cccn3c3ccccc32)c1 | inactive: -13.2% |
| O=C(NCc1cccc(Cl)c1)C1CCN(c2nn3cc(-c4ccc(F)cc4)nc3s2)CC1 | active: 62.3% |
| COc1ccc(-c2cn3nc(N4CCCC(C(=O)Nc5cc(Cl)ccc5OC)C4)sc3n2)cc1 (configuration not stated) | inactive: -9.3% |
| Cc1ccc(CNC(=O)c2c(-c3ccc(F)cc3F)noc2C)o1 | inactive: -16.2% |
| Cc1cc(C)c(NC(=O)Cn2nnc(C(=O)NCc3cccs3)c2N)c(C)c1 | inactive: -0.838% |
| CCN(CC)c1ccc2cc(-c3nc(-c4ccccc4)no3)c(=O)oc2c1 | inactive: 7.79% |
| CSc1ccc(CNC(=O)c2ccc3c(c2)N(C)C(=O)C2CCCCN32)cc1 (configuration not stated) | inactive: -7.41% |
| CC(C)COc1ccc(C(=O)Nc2scc(-c3ccc(Br)cc3)c2C(=O)OC(C)C)cc1 | inactive: -20.7% |
| CCOC(=O)c1cc2c(=O)n3ccccc3nc2n(Cc2ccco2)c1=NC(=O)c1ccc(OC)cc1 | inactive: -28.8% |
| COc1ccc(CC(=O)NCC(c2ccc(N(C)C)cc2)N2CCOCC2)cc1OC (configuration not stated) | inactive: -8.66% |
| Cc1ccccc1OCc1ccc(-c2nc(C#N)c(N3CCCCC3)o2)o1 | inactive: -28.2% |
| COc1cc(NC(=O)Cn2c(=O)n(-c3ccccc3)c(=O)c3c4c(sc32)CCCC4)cc(OC)c1 | inactive: -10.1% |
| O=c1ccc2cc(S(=O)(=O)NCc3ccc(Cl)cc3)ccc2[nH]1 | inactive: 4.57% |
| O=C(NCc1ccccc1)c1cccc(N2CCCS2(=O)=O)c1 | inactive: 10.9% |
| COc1ccc(C(=O)COC(=O)CCCC(=O)Nc2ccc(C(C)=O)cc2)cc1 | inactive: 18.9% |
| CCOc1ccc(-n2nc(CO)c(C(=O)NCC(c3ccccc3)c3ccccc3)n2)cc1 | inactive: -9.37% |
| Cc1nc2cccnc2n1C1CCN(C(=O)Nc2ccccc2C(F)(F)F)CC1 | inactive: -11.3% |
| COc1ccc(CCN(C)CCCN2CCc3cc(OC)c(OC)cc3CC2=O)cc1OC | inactive: -47.7% |
| CNS(=O)(=O)c1cn(CC(=O)N2CCN(c3ccc(Cl)cc3)CC2)cc1S(=O)(=O)NC | inactive: -3.4% |
| Cc1cc(C)c(NC(=O)COCc2cc(-c3cccs3)on2)c(C)c1 | inactive: -10.7% |
| COC(=O)c1scc(-c2ccc(C)cc2)c1S(=O)(=O)Nc1ccc(NC(C)=O)cc1 | inactive: -7.43% |
| COc1ccc(-c2cn3nc(SCC(=O)Nc4ccccc4F)ccc3n2)cc1 | inactive: -12.5% |
| CCc1cccc(N2C(=O)CSC23C(=O)N(Cc2ccccc2F)c2ccccc23)c1 (configuration not stated) | inactive: -4.12% |
| COc1ccc(-n2ncc(C(=O)NCc3ccc4c(c3)OCO4)c2C2CCN(C(=O)OC(C)(C)C)CC2)cc1 | inactive: -18.9% |
| Cc1cccc(OCC(=O)Nc2cccc(C(=O)OCc3cc(=O)n4c(C)csc4n3)c2)c1 | inactive: -12.9% |

| SMILES | activation |
| --- | --- |
| COc1ccc(S(=O)(=O)N(CC(=O)NCCSc2ccccc2)c2ccc(Cl)cc2)cc1 | inactive: 6.94% |
| O=C(CSc1nccn1Cc1ccc(F)cc1)NCc1ccccc1 | inactive: -7.78% |
| COC(=O)c1sccc1S(=O)(=O)N(CC(=O)Nc1cc(C)cc(C)c1)c1ccc(Cl)cc1 | inactive: -3.24% |
| COc1ccc(-n2c(SCC(=O)NCc3ccccc3)nc3ccsc3c2=O)cc1 | inactive: -10.9% |
| COc1ccc(CNC(=O)CN2C(=O)COc3ccc(S(=O)(=O)N4CCCCCC4)cc32)cc1 | inactive: -17.5% |
| Cc1ccc(C2Nc3ccccc3-n3c(-c4ccccc4)c4c(=O)n(C)c(=O)n(C)c4c32)cc1 (configuration not stated) | inactive: -3.35% |
| COc1ccc(NC(=O)c2nn(C)c3c2CSc2ccc(C)cc2-3)cc1OC | inactive: 26.1% |
| COCCCNC(=O)c1ccc(Cn2c(=O)c3ccccc3n(Cc3ccc(C)cc3)c2=O)cc1 | inactive: -6.72% |
| COc1cccc(NC(=O)c2ccc3c(=O)n4nc(Nc5ccccc5OC)sc4nc3c2)c1 | inactive: 2.94% |
| COc1ccc(CNC(=O)c2ccc(CNS(=O)(=O)c3ccc(OC)cc3)cc2)cc1 | inactive: -1.21% |
| CCOC(=O)c1ccc(NC(=O)CC2Nc3cc(C)c(C)cc3NC2=O)cc1 (configuration not stated) | inactive: -33.3% |
| COCCOC(=O)Cn1nnc2sc(-c3ccccc3)cc2c1=O | inactive: 0.914% |
| Cc1nn(S(=O)(=O)c2ccc(C(C)C)cc2)c(C)c1S(=O)(=O)N1CCCCC1 | inactive: 24.9% |
| Cc1ccc2c(c1)-c1c(cnn1CC(=O)N1CCN(c3cccc(C(F)(F)F)c3)CC1)CO2 | inactive: 1.75% |
| CC(=O)N1CCCc2cc(S(=O)(=O)N3CCCC(C(=O)N4CCN(c5ccccc5F)CC4)C3)ccc21 (configuration not stated) | inactive: 40.9% |
| Cc1nc(SCC(=O)OC(C)(C)C)c2c3c(sc2n1)CCCC3 | inactive: 47.8% |
| CCc1cccc(C)c1NS(=O)(=O)c1ccc2c(c1)NC(=O)C(C)C(=O)N2 (configuration not stated) | inactive: -3.63% |
| CCOc1ccc(-n2c(=O)c3c4c(sc3n(CC(=O)NCCCOC)c2=O)CCCCC4)cc1 | inactive: 4.09% |
| Cc1ccccc1Nc1c(-c2ccc(O)cc2)nc2c(C)cccn12 | inactive: -4.01% |
| COc1cccc(CNC(=O)CSc2nnc(C)c3c(C)n(-c4ccccc4)nc23)c1 | inactive: -4.3% |
| NC(=O)c1cn(Cc2c(F)cccc2F)nn1 | inactive: -11.7% and inactive: 4.34% |
| COc1cc2c(N3CCN(C(=O)Nc4ccc(OC(C)C)cc4)CC3)ncnc2cc1OCCCN1CCCCC1 | inactive: 3.66% |
| CCC(C(=O)Nc1ccc(F)cc1F)n1nc(-c2ccccc2)c2c(c1=O)CCCC2 (configuration not stated) | inactive: -22.2% |
| COc1ccc(NC(=O)CCS(=O)(=O)c2cc3c4c(c2)CCN4C(=O)CC3)cc1OC | inactive: 1.99% |
| CC(=O)N1c2ccccc2CC1C(=O)N1CCN(c2cc(Cl)ccc2C)CC1 (configuration not stated) | inactive: 47.9% |
| Cc1nc(N)c(S(=O)(=O)c2ccccc2)c(Nc2ccc(Br)cc2)n1 | inactive: -0.503% |
